PMC4336329 (PLoS ONE, 2015)
The whole screen tested about 310,000 compounds, of which about 14,000 (4.5%) showed an effect of 50% or more. The effect is printed as a negative number. The list shows a part of the results.

target: human ether-à-go-go-related gene (hERG) potassium channel (human, UniProt Q12809); experiment: primary screen, population patch clamp on CHO cells stably expressing hERG
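Note: peak tail current of the secondary pulse compared with the same well before compound.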

Chain of human ether-à-go-go-related gene (hERG) potassium channel (Q12809 whole entry, looked up): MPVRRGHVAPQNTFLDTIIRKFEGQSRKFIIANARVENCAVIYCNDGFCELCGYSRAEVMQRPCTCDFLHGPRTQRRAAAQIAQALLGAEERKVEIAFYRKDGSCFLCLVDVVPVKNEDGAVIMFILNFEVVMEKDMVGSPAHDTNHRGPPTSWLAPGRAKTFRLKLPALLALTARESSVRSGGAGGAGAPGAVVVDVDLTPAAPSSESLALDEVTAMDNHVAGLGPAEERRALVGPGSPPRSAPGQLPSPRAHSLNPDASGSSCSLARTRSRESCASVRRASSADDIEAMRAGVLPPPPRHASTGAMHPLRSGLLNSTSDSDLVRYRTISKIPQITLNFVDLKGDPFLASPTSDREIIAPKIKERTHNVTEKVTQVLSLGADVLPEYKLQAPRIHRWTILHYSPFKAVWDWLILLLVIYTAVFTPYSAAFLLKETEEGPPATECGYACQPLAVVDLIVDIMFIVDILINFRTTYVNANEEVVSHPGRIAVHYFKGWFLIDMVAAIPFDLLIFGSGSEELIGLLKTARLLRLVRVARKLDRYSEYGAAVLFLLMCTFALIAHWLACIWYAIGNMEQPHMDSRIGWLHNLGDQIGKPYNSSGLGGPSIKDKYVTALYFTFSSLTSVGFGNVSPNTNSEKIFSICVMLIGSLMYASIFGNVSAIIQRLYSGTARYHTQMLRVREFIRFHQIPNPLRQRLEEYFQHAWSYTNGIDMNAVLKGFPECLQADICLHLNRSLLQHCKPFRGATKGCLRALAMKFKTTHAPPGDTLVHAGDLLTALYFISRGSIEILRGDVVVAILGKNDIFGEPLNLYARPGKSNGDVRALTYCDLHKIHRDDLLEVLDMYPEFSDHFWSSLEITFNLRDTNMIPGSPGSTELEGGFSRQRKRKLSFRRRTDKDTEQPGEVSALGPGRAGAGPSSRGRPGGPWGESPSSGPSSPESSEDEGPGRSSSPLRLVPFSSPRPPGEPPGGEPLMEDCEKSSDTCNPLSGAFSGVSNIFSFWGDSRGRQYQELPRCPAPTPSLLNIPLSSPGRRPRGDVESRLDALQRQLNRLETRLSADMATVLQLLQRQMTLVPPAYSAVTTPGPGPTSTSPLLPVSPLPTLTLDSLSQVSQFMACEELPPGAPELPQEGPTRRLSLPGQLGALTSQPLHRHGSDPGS

In order of falling “hERG current change (%, negative = inhibition) at 10uM” value:
1. Cc1cccc(C)c1NC(=O)CN(C)C(=O)Cn1c(=O)cnc2ccccc21  26.2%
2. O.O=CC(=O)c1ccccc1  25.8%
3. CCN(CC)c1nc(-c2ccccc2)nc2c1sc(=S)n2CC  25.2%
4. COc1ccc(C2NC(=S)NC(C)=C2C(=O)Nc2ccccn2)cc1OC (stereo not shown)  22.1%
5. COc1cc(/C=C/C(=O)O)cc(S(=O)(=O)Nc2ccc(F)cc2)c1OC  20.4%
6. CCn1c(CO)nc2c1c(=O)[nH]c(=O)n2Cc1ccccc1  17.7%
7. CCCCCCCCCCCCN1[C@@H](CC(C)=O)c2cc(C(F)(F)F)ccc2S1(=O)=O  17.7%
8. CCc1cc2cc(C)cc(C)c2nc1SCC(=O)Nc1cc(C)on1  17.4%
9. O=C(Nc1ccc(S(=O)(=O)Nc2nccs2)cc1)c1cc(=O)[nH]c2ccccc12  15.6%
10. CCOc1ccc(S(=O)(=O)n2nnc3ccccc32)cc1C  14.6%
11. CC(C)N1C(=O)c2ccccc2C1C(=O)NCCc1ccccc1 (stereo not shown)  13.7%
12. Cl.c1ccc2c3c([nH]c2c1)CCNC3  13.7%
13. COc1cccc(OC)c1C(=O)Nc1cc2c(cc1N1CCOCC1)n(C)c(=O)n2C  13.2%
14. O=C1NC[C@@H](Cc2cccc3ccccc23)N(CCCCC2CCCCC2)C1=O  12.7%
15. O=[N+]([O-])c1ccc(N2CCNCC2)c(S(=O)(=O)N2CCOCC2)c1  11.7%
16. Cc1sccc1/C=N/NC(=O)c1cccc2ccccc12  11.1%
17. Cc1ccc(C)c(NC(=O)c2cnn3ccccc23)c1  11%
18. COc1ccccc1-c1c(C)nn2c(N3CCC(C(N)=O)CC3)cc(C)nc12  10.5%
19. CC1(C)Cc2c(sc3nc(-c4ccccc4)oc(=O)c23)CO1  10.3%
20. Cc1ccc(C)c(C(=O)CN2C(=O)c3ccccc3C2=O)c1  9.96%
21. CC(=O)Nc1nc(NC(=O)C(Cl)(Cl)Cl)n(-c2ccccc2)n1  7.98%
22. O=C(NNC(=O)c1ccco1)Nc1ccccc1  7.95%
23. COc1ccc(C2C(C(=O)Nc3cc(OC)c(OC)c(OC)c3)c3ccccc3C(=O)N2C)cc1OC (stereo not shown)  7.71%
24. COc1ccccc1NS(=O)(=O)c1ccc(C(=O)OCC(=O)NCc2ccco2)cc1  7.71%
25. CCOC(=O)c1c(C)n(C(C)C)c2ccc(OC)cc12  7.11%
26. O=C(CCc1nc2ccccc2n1-c1ccccc1)NCCO  6.97%
27. O=C1C(Cl)=C(Nc2ccc(F)cc2)C(=O)N1CCc1ccccc1  6.71%
28. O=C(N/N=C/c1cnc(N2CCCCC2)s1)c1ccc(Cl)cc1  5.94%
29. CCCCC1CCC(C(=O)OCC(=O)Nc2ccc(S(N)(=O)=O)cc2)CC1 (stereo not shown)  4.59%
30. Cc1cccc(NC(=O)CCCn2c(=S)[nH]c3ccccc3c2=O)c1  4.4%
31. O=C(CN1CCCC1)Nc1ccc(S(=O)(=O)N2CCCCC2)cc1  4.2%
32. COc1ccc(CNC(=O)COC(=O)c2[nH]c(C)c(C(C)=O)c2C)cc1OC  1.28%
33. Nc1cc(=O)[nH]c(SCC(=O)Nc2ccc(Cl)c(Cl)c2)n1  1.27%
34. Cc1ccc(/C=N/N2CCN(C3c4ccccc4-c4ccccc43)CC2)s1  0.486%
35. c1ccc(C2=NNC(c3ccco3)=Nc3ccccc32)cc1  0.173%
36. O=C(NC1CCCCC1)N1CCN(c2ccccc2)CC1  -0.0694%
37. COC(=O)c1sc(=S)n(Cc2ccccc2)c1C  -0.144%
38. Cc1ccccc1CN1CCCOCCS1(=O)=O  -0.4%
39. O=C(NCCCN1CCOCC1)c1ccccc1-c1ccccc1  -0.98%
40. COC(=O)c1c(C)oc2ccc(N(C(=O)c3ccncc3)S(=O)(=O)c3ccc(C)cc3C)cc12  -1.99%
41. O=C1[C@H]2[C@@H](c3ccc(Cl)cc3)N3C(=O)N(c4cccc(Cl)c4)C(=O)[C@@]3(Cc3ccccc3)[C@H]2C(=O)N1C1CCCCC1  -2.02%
42. Br.O=C(N/N=C/c1sc(N2CCOCC2)nc1-c1ccccc1)c1cccc(S(=O)(=O)N2CCOCC2)c1  -2.04%
43. C=C1C(=O)O[C@@H]2C[C@@H](C)[C@@H]3C=CC(=O)[C@@]3(C)[C@@H](O)[C@H]12  -2.06%
44. CCc1ccc(NC(=O)C(C)OC(=O)CC(NC(C)=O)c2ccccc2)cc1 (stereo not shown)  -2.09%
45. CC(c1ccccc1)n1c(CCCO)nc2ccccc21 (stereo not shown)  -2.26%
46. NC(=O)CSC1=N/C(=C\c2ccco2)C(=O)N1c1ccc(OC(F)F)cc1  -2.31%
47. CCOC(=O)C1CCCN1C(=O)c1ccc(OC)c(Br)c1 (stereo not shown)  -2.58%
48. COc1cccc(NC(=S)N2CCN(S(=O)(=O)c3ccccc3)CC2)c1  -2.98%
49. Cn1c(=O)c2c(ncn2CC(=O)OCC(=O)NNC(=O)c2ccc(Cl)cc2)n(C)c1=O  -4.15%
50. CC1CCCN(C(=O)CCc2nnc(-c3ccc4c(c3)OCO4)o2)C1 (stereo not shown)  -4.43%
51. COC(=O)c1ccccc1NC(=O)c1c(Br)cnn1C  -4.63%
52. Cc1nnc(NC(=O)CSc2nnc(CCc3nc4ccccc4[nH]3)n2C)s1  -4.75%
53. O=C(NC12CC3CC(CC(C3)C1)C2)c1cc([N+](=O)[O-])ccc1Cl  -5.77%
54. CCn1cc(C(=O)NCCC(C)C)c(=O)c2cc(S(=O)(=O)N3CCCCC3)ccc21  -7.53%
55. Nc1cc(-c2ccco2)no1  -8.15%
56. CCOC(=O)C(=Cc1ccc(-c2ccsc2C(=O)OC)o1)C(=O)OCC  -8.29%
57. COC(=O)c1cc2oc3ccccc3c2n1Cc1ccccn1  -8.74%
58. CC(C)NC(=O)CSc1nnc2sc3ccccc3n12  -9.02%
59. Cc1cccc(-n2c(SCC(=O)N3CCCC3)nc3n[nH]c(C)c3c2=N)c1  -9.34%
60. O=C(CSc1nnc(-c2ccncc2)o1)NCc1ccccc1  -9.8%
61. CC(C)OC(=O)NCCOC(=O)Nc1ccc(Cl)c(Cl)c1  -10.9%
62. CN(Cc1ccccc1)c1nc(N)nc(Cl)c1C=O  -12%
63. COC(=O)C1=C(c2ccc(-c3ccccc3)c(F)c2)C[C@@H]2CC[C@H]1N2C(=O)NC1CC1  -12.3%
64. O=C(c1ccncc1)N1CCN(S(=O)(=O)c2cccc(Cl)c2)CC1  -13.3%
65. COc1ccc(Br)cc1C(=O)Nc1ccc(O)cc1  -13.5%
66. COc1cc(C)c(C(C)C)cc1S(=O)(=O)n1cnc(C)c1  -14%
67. COc1ccc(Br)cc1CNc1ccc(S(N)(=O)=O)cc1  -14.1%
68. Cc1cc(NC(=O)CN2CCN(S(=O)(=O)c3ccc4ccccc4c3)CC2)no1  -14.7%
69. COc1cc(S(=O)(=O)N2CCOCC2)ccc1NC(=O)c1cc2c(s1)CCC2  -15.3%
70. COc1ccccc1N1CCN(C2CCCN(Cc3c(F)cccc3F)C2)CC1 (stereo not shown)  -16.3%
71. COC(=O)C1CCN(C(=O)CN(C)Cc2ccc(C(C)(C)C)cc2)CC1  -16.7%
72. CC1=C(C(=O)Nc2ccc(Cl)cc2)C(c2cccs2)n2nnnc2N1 (stereo not shown)  -18.7%
73. CCN(CC)CCOC(=O)/C=C/c1ccccc1OC.Cl  -20%
74. Cc1cc(OCC(=O)C(C)(C)C)c2c(-c3ccccc3)cc(=O)oc2c1  -22.4%
75. COc1ccc(S(=O)(=O)Cc2ccc(C(=O)NCc3ccc(C)cc3)o2)cc1  -24.5%
76. N#CCCN(Cc1cccnc1)C(=O)Nc1ccc(Cl)c(Cl)c1  -26%
77. COC(CNC(=O)C1CCC(CNS(=O)(=O)c2c(C)cc(C)cc2C)CC1)OC (stereo not shown)  -26%
78. O=c1ccnc(S/C=C/c2ccccc2)[nH]1  -26.6%
79. Br.COc1ccc(-c2csc(=NCCO)n2-c2ccccc2)cc1  -35.6%
80. O=C(CN(C(=O)CCC(=O)Nc1nccs1)c1cccc(F)c1)NCCc1ccccc1  -38.5%
81. Cn1c(N)c(C(=O)COC(=O)C(Cc2ccccc2)NC(=O)c2ccccc2)c(=O)n(C)c1=O (stereo not shown)  -44.2%
82. CCCc1cc(=O)oc2cc(OC(C)C(=O)NC3CC(C)(C)NC(C)(C)C3)ccc12 (stereo not shown)  -45.9%
83. Cn1c(=O)c2c(nc(CN3CCc4ccccc4C3)n2Cc2cccc(Cl)c2)n(C)c1=O  -53.9%
84. COc1ccc2[nH]c3c(NCCN4CCCCC4)ncnc3c2c1  -55.9%
85. O=C(C1CCN(S(=O)(=O)c2ccc(Cl)cc2)CC1)N1CCN(c2ccccn2)CC1  -64.7%
86. CCOc1ccc2nc(N(CCN(CC)CC)C(=O)c3ccc([N+](=O)[O-])cc3)sc2c1.Cl  -65.7%
87. COc1ccc(CCN(C)Cc2cccc3ccccc23)cc1OC  -73.8%
88. Cc1cc(N2CCN(S(=O)(=O)c3ccc(Br)cc3)CC2)n2ncnc2n1  -76.9%
